The campaign covered roughly 310,000 compounds. About 14,000 (4.5%) showed an effect of 50% or more. The effect is printed as a negative number. The list shows a part of the results.
Each molecule was assayed against human ether-à-go-go-related gene (hERG) potassium channel (human, UniProt Q12809) (assay: primary screen, population patch clamp on CHO cells stably expressing hERG).
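Also: peak tail current of the secondary pulse compared with the same well before compound.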

Sequence of human ether-à-go-go-related gene (hERG) potassium channel (Q12809 whole entry, looked up): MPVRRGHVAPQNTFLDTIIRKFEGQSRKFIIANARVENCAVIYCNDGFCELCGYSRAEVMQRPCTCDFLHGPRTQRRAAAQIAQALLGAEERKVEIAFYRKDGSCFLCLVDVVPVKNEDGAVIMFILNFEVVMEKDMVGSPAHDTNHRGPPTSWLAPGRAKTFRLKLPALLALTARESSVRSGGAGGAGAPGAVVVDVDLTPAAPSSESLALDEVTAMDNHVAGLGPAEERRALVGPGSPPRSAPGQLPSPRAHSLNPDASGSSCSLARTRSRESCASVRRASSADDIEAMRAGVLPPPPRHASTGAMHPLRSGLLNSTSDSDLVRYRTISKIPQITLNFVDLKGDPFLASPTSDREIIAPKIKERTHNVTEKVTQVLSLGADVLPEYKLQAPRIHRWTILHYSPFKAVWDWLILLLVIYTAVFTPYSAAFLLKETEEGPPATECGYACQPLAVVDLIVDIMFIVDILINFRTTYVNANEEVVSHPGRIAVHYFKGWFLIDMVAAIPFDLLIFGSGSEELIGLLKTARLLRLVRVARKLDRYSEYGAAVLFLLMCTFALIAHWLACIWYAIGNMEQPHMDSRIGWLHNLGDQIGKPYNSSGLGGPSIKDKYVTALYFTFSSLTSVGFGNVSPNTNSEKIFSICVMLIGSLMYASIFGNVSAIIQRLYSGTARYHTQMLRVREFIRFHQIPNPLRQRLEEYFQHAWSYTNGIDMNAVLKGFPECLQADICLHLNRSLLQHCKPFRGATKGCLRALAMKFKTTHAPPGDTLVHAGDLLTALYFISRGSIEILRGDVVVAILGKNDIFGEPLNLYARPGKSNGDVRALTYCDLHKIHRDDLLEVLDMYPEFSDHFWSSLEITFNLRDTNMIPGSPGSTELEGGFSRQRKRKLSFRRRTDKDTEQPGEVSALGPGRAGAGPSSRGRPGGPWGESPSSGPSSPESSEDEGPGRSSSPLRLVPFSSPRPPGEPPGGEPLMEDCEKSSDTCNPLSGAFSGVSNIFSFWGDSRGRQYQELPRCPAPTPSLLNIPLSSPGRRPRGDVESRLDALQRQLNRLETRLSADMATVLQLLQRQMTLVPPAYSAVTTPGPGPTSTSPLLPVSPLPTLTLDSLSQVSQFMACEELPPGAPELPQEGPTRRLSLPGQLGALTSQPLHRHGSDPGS

| Structure (SMILES) | hERG current change (%, negative = inhibition) at 10uM [%] |
| --- | --- |
| CCOc1ccc(C(=O)CCC(=O)Nc2ccncc2)cc1 | -4.97 |
| COCCNC(=O)C(=O)NNS(=O)(=O)c1ccc2ccccc2c1 | 5.35 |
| CCC(C)NC(=O)c1cc(C)no1 (stereo not drawn) | 19.4 |
| COC(=O)c1[nH]c2ccc(F)cc2c1NC(=O)CCN1CC(C)OC(C)C1 (stereo not drawn) | 5.45 |
| O=C(NC(=S)Nc1ccc(N2CCCCC2)cc1)c1ccco1 | -14 |
| CC1(C)CC(=O)N(CC(=O)O)c2ccccc2S1 | 15.7 |
| CC(=O)c1cccc(NC(=O)C(CC(C)C)NC(=O)C2CCCCC2)c1 (stereo not drawn) | -4.77 |
| COc1ccc(-n2nnnc2-c2ccc(S(C)(=O)=O)cc2Cl)cc1 | 2.44 |
| O=C(NCCc1ccc(Cl)cc1)C1COc2ccccc2O1 (stereo not drawn) | -49.5 |
| COc1ccccc1S(=O)(=O)Cc1ccc(C(=O)N2CCN(c3cccc(Cl)c3)CC2)o1 | -31.1 |
| O=C(O)c1ccc(-n2c(-c3cc(-c4ccco4)[nH]n3)n[nH]c2=S)cc1 | 12 |
| CCOc1cc2[nH]c(=S)n(CCCCC(=O)NCc3ccco3)c(=O)c2cc1OCC | -6.51 |
| COC(C(=O)N/N=C(\C)CC(=O)Nc1ccc(Cl)cc1C)c1ccccc1 (stereo not drawn) | -10.5 |
| CCSc1nc2c(c(=O)[nH]1)C(C(C)C)C(C#N)=C(N)O2 (stereo not drawn) | 5.71 |
| CCCc1cc(=O)[nH]c(SCCc2ccccc2)n1 | 5.57 |
| O=C(NCCN1CCOCC1)c1ccc(CS(=O)(=O)c2ccc(Br)cc2)o1 | -2.9 |
| O=C(CNS(=O)(=O)c1ccccc1)N1CCN(c2ccccc2)CC1 | -5.22 |
| Cc1ccc(C2=NN(C(=O)CSc3nccn3C)C(c3ccco3)C2)cc1 (stereo not drawn) | -30.2 |
| COc1cc(/C=c2\sc3n(c2=O)CCCN=3)ccc1O | 12.3 |

| Structure (SMILES) | hERG current change (%, negative = inhibition) at 10uM [%] |
| --- | --- |
| CCN(CC)CCCNC(=O)c1cc2c(Cl)nc3ccccc3c2s1 | -47.1 |
| O=C(CCNS(=O)(=O)c1ccccc1)Nc1ccc(Cl)cc1C(=O)c1ccccc1 | -32.9 |
| Cc1cc(C)c(NC(=O)CN)c(C)c1.Cl | 17.6 |
| O=C(O)CSCC(=O)N(Cc1ccccc1)c1nc(-c2ccccc2)c(-c2ccccc2)s1 | -3.61 |
| Cc1ccccc1-n1c(SCC(=O)NCC2CCCO2)nc2c([nH]c3ccccc32)c1=O (stereo not drawn) | 0.764 |
| CCC(c1nnnn1CCc1ccccc1)N(Cc1ccco1)Cc1cc2c(C)ccc(C)c2[nH]c1=O (stereo not drawn) | 10.4 |
| O=C(Nc1nc2ccccc2[nH]1)c1ccc(OC(F)F)cc1 | -11 |
| COc1ccc2nc(Cl)c(C3CC(c4ccco4)=NN3C(=O)CCC(=O)O)cc2c1 (stereo not drawn) | -8.82 |
| CC(CCc1ccccc1)NC(=O)CNc1cccc([N+](=O)[O-])c1 (stereo not drawn) | -30.1 |
| CSc1nnc(NC(=O)C2CCCCC2)s1 | 5.07 |
| CCCc1ccc(OCc2ccc(C(=O)N3CCSCC3)o2)cc1 | -42.8 |
| CCOC(=O)c1c(C)[nH]c(C(=O)NCCc2ccc(OC)c(OC)c2)c1C | -15.3 |
| CCCOc1ccc(CNC(=O)C2CCN(C(=O)N3CCOc4ccccc43)CC2)cc1 | -7.99 |
| COc1ccc(C(=O)c2c(NC(C)=O)sc3c2CCN(C(=O)OC(C)(C)C)C3)cc1 | -23.2 |
| CCOc1cc(/C=C2\N=C(C)OC2=O)cc(Br)c1OCC(=O)OC | 22.6 |
| Cn1ccnc1Sc1cc(NCCCO)c([N+](=O)[O-])c2nonc12 | -3.23 |
| CCOC(=O)N1CCN(C(=S)Nc2cccc(C)c2)CC1 | 0.816 |
| CCc1c(C)n2nc(C)cc2[nH]c1=O | -24.5 |
| CC(C)C(Nc1ccc(S(=O)(=O)N2CCOCC2)cc1[N+](=O)[O-])C(=O)O (stereo not drawn) | 4.71 |

| Structure (SMILES) | hERG current change (%, negative = inhibition) at 10uM [%] |
| --- | --- |
| Cc1cc(C)n2nc(C(=O)OCC(=O)N3C(C)CCCC3C)nc2n1 (stereo not drawn) | 21.5 |
| O=C(COC(=O)C1CC2C=CC1C2)Nc1ccccc1 (stereo not drawn) | -2.43 |
| Cc1c(NC(=O)CN2C(=O)C(=O)N(Cc3ccccc3)C2=O)c(=O)n(-c2ccccc2)n1C | 29.8 |
| Cc1ccccc1NC(=S)NCCc1c[nH]c2ccccc12 | 12 |
| CN1OC(COC(=O)c2ccccc2)CC1c1ccccc1 (stereo not drawn) | -11.7 |
| O=C(CSc1nnc(-c2ccncc2)n1C1CCCCC1)Nc1ccccc1 | -14.7 |
| Cc1nn(C2CCS(=O)(=O)C2)c(C)c1CN(C)C(=O)c1cccc(Cl)c1 (stereo not drawn) | -2.4 |
| Cc1ccc(NC(=O)CSCC(=O)OC(C)C(=O)Nc2ccc(S(N)(=O)=O)cc2)c(C)c1 (stereo not drawn) | 5.08 |
| N/C(=N\c1nc2ccccc2o1)NC(=O)c1ccccc1F | -7.79 |
| CC(C)NC(=O)C1CCN(c2ccc(S(=O)(=O)N3CCOCC3)cc2Cl)CC1 | -0.695 |
| CN1C(=O)C(CCC(N)=O)NC1=S (stereo not drawn) | 8.73 |
| CC1CCN(S(=O)(=O)c2ccc(NC(=O)Cn3nnc(-c4ccccc4F)n3)cc2)CC1 | -8.32 |
| COc1cc(CC2C(=O)N(C)C(=O)N(C)C2=O)ccc1OCc1ccccc1 | -5.65 |
| c1ccc2c(c1)Nc1ccccc1S2 | 11.5 |
| CC(C)OC(=O)/C(C#N)=C/c1cn(Cc2ccccc2)c2ccccc12 | -6.73 |
| COc1ccccc1OCc1ccc(C(=O)N2CCN(C(=O)c3ccco3)CC2)cc1 | -37.8 |
| Cn1nc(-c2ccc(Cl)cc2)c2cc(C(=O)N3CCN(c4ccccc4)CC3)sc21 | 1.25 |
| CN(C)S(=O)(=O)c1cccc(N=C2SCCN2Cc2ccccc2)c1 | -16.3 |
| Nc1nc2nc(-c3cccs3)cc(C(F)(F)F)n2n1 | 14 |

From PMC4336329 (PLoS ONE, 2015)
